Measurements as given in PubChem BioAssay AID624417 (National Center for Advancing Translational Sciences (NCATS), 2012).
About 6,400 (1.6%) of roughly 410,000 compounds were called active. Inconclusive results, whose numbers are uncertain, are shown with a selection of clear calls. Calls come from the whole dose curve; as a rule, active = well fitted inhibition curve with a large enough effect; inconclusive = small, poorly fitted or top-dose-only effect; inactive = no such curve, though single readings can be large or run the other way. Potencies of inconclusive entries are left out as doubtful fits.

Target: Glucagon-like peptide 1 receptor (Homo sapiens) (UniProt P43220)
Assay: qHTS of GLP-1 Receptor Inverse Agonists (Inhibition Mode); note: nearly all actives have a fitted effect of over 55% in size
Conditions: HEK293 GLP-1R CRE-luciferase, luminescence, 24 h, GLP-1R form is constitutively active; activity change, negative = inhibition: at 38.3 µM (top of the series) unless noted
In short: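 Constitutively active GLP-1R drives a cAMP-responsive luciferase in stably transfected HEK293 cells; test compounds are added after overnight (12 h) attachment and left 24 hr, and signal loss in luminescence marks inhibition.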
% is set by controls: 0 for no effect and ±100 for the full control effect; potency is the fitted concentration of half-maximal effect; tags give direction and shape of the fitted curve.

Sequence of UniProt P43220 (P43220 whole entry, looked up): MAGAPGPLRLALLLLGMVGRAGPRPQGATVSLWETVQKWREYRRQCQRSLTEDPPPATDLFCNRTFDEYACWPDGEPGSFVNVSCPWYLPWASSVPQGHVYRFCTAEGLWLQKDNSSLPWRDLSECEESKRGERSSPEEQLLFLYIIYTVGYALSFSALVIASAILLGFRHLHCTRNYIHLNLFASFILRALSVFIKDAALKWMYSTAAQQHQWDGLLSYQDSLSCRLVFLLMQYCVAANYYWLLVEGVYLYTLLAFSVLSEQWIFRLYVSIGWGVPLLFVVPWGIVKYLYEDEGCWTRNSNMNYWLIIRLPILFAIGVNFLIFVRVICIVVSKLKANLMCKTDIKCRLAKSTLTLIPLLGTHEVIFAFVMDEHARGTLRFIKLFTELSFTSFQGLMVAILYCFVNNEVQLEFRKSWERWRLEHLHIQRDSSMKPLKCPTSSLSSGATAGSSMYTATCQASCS

| SMILES | Potency | activity change, negative = inhibition |
| --- | --- | --- |
| Cc1ccc(SC[C@H](C)CN2CCC(NC(=O)OCc3ccccc3)CCC2=O)cc1 (some centres undefined) | inconclusive [inhibitor, single point] | – |
| COc1cc(/C=C2\CCC(C)C3=C(c4cc(OC)c(OC)c(OC)c4)C(C#N)=C(N)OC32)cc(OC)c1OC (centres undefined) | inconclusive [inhibitor, single point] | – |
| CCC(=O)OCCCNc1nc(-c2ccc(Cl)cc2)nc2ccccc12 | inconclusive [inhibitor, partial curve, poor fit] | – |
| COc1ccc(NC(=O)N2CCc3ccccc32)cc1 | inconclusive [inhibitor, partial curve, poor fit] | – |
| CC(C)(O)C1=C[N+](=O)CC=C1 | – | inactive: 4.83% |
| O=C1/C(=C/c2ccccc2)CSc2sccc21 | inconclusive [inhibitor, single point] | – |
| O=C(Nc1ccccc1Oc1cccnc1)C1CCCN(Cc2cccc(Cl)c2)C1 (centres undefined) | inconclusive [inhibitor, partial curve, poor fit] | – |
| CC(C)c1ccccc1OCC(O)CN1CCN(S(=O)(=O)c2ccc([N+](=O)[O-])cc2)CC1 (centres undefined) | inconclusive [inhibitor, partial curve, poor fit] | – |
| CCN(CCn1cccn1)Cc1cn[nH]c1-c1ccc(-c2ccccc2)cc1 | inconclusive [inhibitor, single point] | – |
| O=C(C(=Cc1ccccc1)CN1CCCCC1)c1ccccc1 | inconclusive [inhibitor, full curve, poor fit] | – |
| CCc1sc(C(=O)Nc2ccc(NC(C)=O)cc2)cc1C | – | inactive: -0.369% |
| COC(=O)c1ccc(OCCOc2ccccc2)cc1 | – | inactive: 0.534% |
| COc1ccc(C(=O)NC2CCCc3ccccc32)cc1Br (centres undefined) | inconclusive [inhibitor, partial curve, poor fit] | – |
| COCc1cc(N2CCCCC2)nc(-c2ccccc2)n1 | inconclusive [inhibitor, partial curve, poor fit] | – |
| COc1ccc(CNC(=O)c2sc(=O)n(Cc3cc(Cl)ccc3OC)c2C)cc1 | inconclusive [inhibitor, single point] | – |
| Cn1c(N/N=C/c2c[nH]c3ccccc23)nc2ccccc21 | inconclusive [inhibitor, full curve, poor fit] | – |
| CC1CN(C(=O)N2c3ccccc3Sc3ccccc32)C(C)CC1=O (centres undefined) | inconclusive [inhibitor, partial curve, poor fit] | – |
| CCN(CC)S(=O)(=O)N1CCC(C(=O)NCc2ccc(C)cc2)CC1 | – | inactive: 0% |
| COc1ccccc1C(=O)NC(=O)Nc1c(C)cc(C)cc1C | inconclusive [inhibitor, partial curve, poor fit] | – |
| CC(C)Cn1c(N)c(C(=O)COC(=O)C2CCCCC2)c(=O)n(C)c1=O | inconclusive [inhibitor, partial curve, poor fit] | – |

| SMILES | Potency | activity change, negative = inhibition |
| --- | --- | --- |
| Cc1cc(NC(=O)c2ccc3nc(C)sc3c2)no1 | inconclusive [inhibitor, partial curve, poor fit] | – |
| CN(CC(=O)Nc1ccc(F)cc1F)S(=O)(=O)c1ccc(C(=O)N2CCOCC2)s1 | – | inactive: 6.93% |
| CC1(C(=O)Nc2cccc3cccnc23)CCN1Cc1csc2ccccc12 (centres undefined) | inconclusive [inhibitor, partial curve, poor fit] | – |
| CC(C)C[C@@H](CN1CCC[C@@H]1CN1C(=O)C(=O)NC[C@@H]1Cc1ccccc1)N1C[C@H](Cc2ccc(O)cc2)N(CC2CCCCC2)C(=O)C1=O | inconclusive [inhibitor, single point] | – |
| CCOc1ccc(/C=N/NC(=O)c2nnn(-c3nonc3N)c2-c2ccc(OCC)cc2)cc1 | inconclusive [inhibitor, partial curve, poor fit] | – |
| c1ccc(-c2csc(NC3CCCCC3)n2)cc1 | inconclusive [inhibitor, single point] | – |
| CCC1c2ccc(C)n2CCN1C(=O)Nc1cc(Cl)ccc1OC (centres undefined) | inconclusive [inhibitor, single point] | – |
| Cc1ccc(OCC(=O)Nc2ccc(CN3CCCCC3)cc2)c(C)c1 | inconclusive [inhibitor, single point] | – |
| Cc1cc(/C=N/n2cnnc2)c(C)n1-c1ccc(OCc2ccc(Cl)cc2Cl)cc1 | inconclusive [inhibitor, single point] | – |
| Cc1ccccc1OCCNc1cc(N2CCCCC2)ccc1[N+](=O)[O-] | inconclusive [inhibitor, partial curve, poor fit] | – |
| Cc1ccc(OCC(=O)Nc2nnc(S(=O)(=O)N3CCCCCC3)s2)cc1C | inconclusive [inhibitor, single point] | – |
| CCc1ccc(N(C(=O)c2snc(C(N)=O)c2N)C(C(=O)NCC2CCCO2)c2cccs2)cc1 (centres undefined) | inconclusive [inhibitor, single point] | – |
| CC(=O)c1cc2c(cc1NC(=O)c1cc(C)nn1-c1ccccc1)OCO2 | inconclusive [inhibitor, full curve, poor fit] | – |
| COc1cccc2sc(Nc3nnc(-c4cccs4)o3)nc12 | inconclusive [inhibitor, single point] | – |
| Cc1ccc(C(=O)N/C(=C\c2sccc2C)C(=O)NCc2ccco2)cc1 | inconclusive [inhibitor, partial curve, poor fit] | – |
| CN(C)c1ccc(N=Nc2ccccc2Br)cc1 | inconclusive [inhibitor, partial curve, poor fit] | – |
| O=C(Cn1nnc(-c2cccc(C(F)(F)F)c2)n1)NNS(=O)(=O)c1cccc(C(F)(F)F)c1 | inconclusive [inhibitor, single point] | – |
| Cn1c(SCC(=O)NC2CC2)nnc1-c1cccs1 | – | inactive: 4.02% |
| CC1(C)CCCC2=C1CC1C(=O)N(c3ccccc3)C(=O)C1C2 (centres undefined) | inconclusive [inhibitor, partial curve, poor fit] | – |
